Data published in the supplement of paper PMC12217912.
The list shows a part of the results. The full chains were built here from the parent and the listed change. Inactive controls read about 0.05.

B1: TEV protease; numbered along this chain (parent)
chain: MGESLFKGPRDYNPISSSICHLTNESDGHTTSLYGIGFGPFIITNKHLFRRNNGTLVVQSLHGVFKVKDTTTLQQHLVDGRDMIIIRMPKDFPPFPQKLKFREPQREERICLVTTNFQTKSMSSMVSDTSCTFPSGDGIFWKHWIQTKDGQCGSPLVSTRDGFIVGIHSASNFTNTNNYFTSVPKNFMELLTNQEAQQWVSGWRLNADSVLWGGHKVFMVKPEEPFQPVKEATQL

Variants of: B1
Assay: raw area under fraction-flipped curve 0-4 h after induction (AUC4h, not background-subtracted), DNA-recorder readout of cleavage of the substrate (dimensionless); higher = more cleavage of the substrate by the protease variant
Conditions: temperature: 34 °C; time window: 0-4 h after rhamnose induction
Protocol: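 In vivo DNA recorder in E. coli TOP10(DE3) ΔrhaA at 34 °C. Each TEVp single-site mutant (parent TEVp 0) is paired with a single-site variant of the 7-mer TEVs (canonical ENLYFQ|S). The substrate sits between flexible linkers in a Bxb1-sfGFP-TEVs-SsrA fusion, so cleavage stabilises Bxb1 and speeds flipping of a recombination array, read by NGS. The value is the raw area under the fraction-flipped curve over 0-4 h after rhamnose induction (AUC4h), with ≥20 reads per time point. It is not background-subtracted; inactive controls average about 0.047.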
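Note: Bxb1 expression induced with 0.2% (w/v) L-rhamnose at OD600 near 0.5, cultures sampled hourly, flipped fraction per protease–substrate barcode pair counted by paired-end Illumina sequencing.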

Variant | area with substrate ENAYFQS | area with substrate ENCYFQS | area with substrate ENDYFQS | area with substrate ENEYFQS | area with substrate ENFYFQS | area with substrate ENGYFQS | area with substrate ENHYFQS | area with substrate ENIYFQS | area with substrate ENKYFQS | area with substrate ENNYFQS | area with substrate ENPYFQS | area with substrate ENQYFQS | area with substrate ENRYFQS | area with substrate ENSYFQS | area with substrate ENTYFQS | area with substrate ENYYFQS | area with substrate ENMYFQS | area with substrate ENVYFQS | area with substrate ENWYFQS
F173A | 0.0683 | 0.0117 | 0.0581 | 0.0617 | 0.0572 | 0.0346 | 0.0682 | 0.0957 | 0.0747 | 0.0649 | 0.0637 | 0.0741 | 0.0694 | 0.0636 | 0.0566 | 0.0611 | – | – | –
F173D | 0.0593 | 0.0587 | 0.0638 | 0.0651 | 0.0562 | 0.0622 | 0.0599 | – | 0.0577 | 0.0169 | – | 0.0606 | 0.0522 | 0.0646 | 0.0569 | 0.0769 | 0.095 | 0.0622 | 0.05
A196L | 0.0572 | 0.0764 | 0.0591 | 0.0721 | 0.0577 | 0.0655 | – | – | – | 0.0568 | 0.0535 | 0.0615 | 0.0591 | 0.0643 | 0.07 | 0.0621 | – | 0.0774 | 0.0568
Q198I | 0.0599 | 0.0656 | 0.0664 | 0.0654 | 0.067 | 0.0658 | – | – | – | 0.0581 | 0.0498 | 0.0649 | 0.0643 | 0.0409 | 0.0423 | – | – | 0.0675 | 0.0053
Q197K | 0.0485 | – | 0.0652 | 0.0624 | – | 0.0617 | 0.0628 | – | – | 0.058 | 0.0708 | 0.0562 | – | 0.063 | 0.0617 | 0.0557 | – | 0.0853 | –
Q197G | 0.086 | – | 0.0621 | 0.0646 | 0.0549 | – | – | 0.113 | 0.0591 | – | – | 0.0766 | – | – | – | – | – | – | –
N186L | 0.0183 | 0.0809 | 0.0554 | 0.0648 | 0.0494 | 0.0492 | – | 0.0881 | 0.075 | 0.0691 | 0.0648 | 0.0539 | – | 0.0613 | 0.0605 | 0.0572 | – | – | 0.0851
N186M | 0.0548 | 0.0627 | 0.0582 | 0.0659 | 0.0581 | 0.0695 | – | – | 0.0616 | 0.0538 | – | 0.0663 | 0.0653 | 0.075 | – | – | – | 0.0805 | 0.0045
S169T | 0.0732 | 0.0674 | 0.0714 | 0.0614 | 0.05 | 0.0618 | 0.0474 | 0.134 | 0.0709 | 0.0658 | 0.0625 | 0.0592 | 0.0593 | 0.0924 | 0.0608 | 0.0832 | 0.0655 | 0.0861 | 0.0415
F187I | 0.0602 | 0.0639 | 0.0562 | 0.0566 | 0.0765 | 0.0857 | – | 0.0886 | 0.0611 | – | 0.0571 | 0.0594 | 0.0482 | 0.0639 | 0.0626 | – | 0.0711 | 0.0991 | –
F187E | 0.0444 | 0.0638 | 0.0634 | 0.0501 | 0.0511 | 0.0561 | 0.0556 | 0.0403 | 0.0498 | 0.068 | 0.0498 | 0.0517 | – | 0.0562 | 0.0654 | – | 0.0568 | 0.0432 | 0.0048
V183T | 0.0599 | 0.0662 | 0.0566 | – | 0.0558 | – | 0.0586 | 0.0984 | 0.0682 | 0.0564 | 0.0574 | 0.0502 | 0.0546 | 0.0623 | 0.0747 | 0.05 | 0.0772 | 0.0719 | –
T176Y | 0.0645 | – | – | 0.0572 | 0.0526 | – | 0.0871 | – | 0.0682 | 0.0622 | 0.0704 | 0.0472 | 0.0513 | 0.128 | – | – | 0.0632 | – | –
V200N | 0.076 | – | 0.067 | 0.0637 | 0.0728 | – | – | – | 0.0614 | – | – | – | – | 0.0562 | – | – | – | 0.0641 | 0.0652
K185T | 0.0664 | 0.0522 | 0.0582 | 0.0623 | 0.0575 | 0.0617 | 0.0398 | 0.1 | 0.0568 | 0.0676 | 0.0583 | 0.0565 | 0.0652 | 0.0531 | 0.0631 | 0.0585 | – | 0.0868 | 0.0647
S171E | 0.0634 | 0.0547 | 0.0584 | 0.0705 | 0.0511 | – | 0.0477 | – | – | – | 0.0555 | 0.0555 | 0.0748 | 0.0731 | 0.0789 | – | – | 0.0471 | –
Q194R | 0.0595 | 0.0828 | – | 0.063 | 0.0572 | – | – | 0.119 | 0.0697 | 0.064 | – | 0.0551 | – | 0.0657 | 0.0684 | – | – | 0.0746 | 0.0296
T181L | 0.0673 | 0.0473 | – | 0.055 | – | 0.0625 | 0.0639 | – | – | 0.0675 | 0.0497 | 0.0692 | – | 0.0525 | 0.0709 | – | – | 0.0586 | 0.0562
T181M | 0.0567 | 0.0597 | – | 0.0599 | 0.0613 | – | 0.0544 | – | 0.0593 | 0.0734 | 0.0648 | 0.0657 | 0.0584 | 0.0603 | 0.0625 | – | 0.0586 | 0.0513 | –
F180V | 0.044 | – | 0.0526 | 0.0625 | 0.0604 | 0.0419 | 0.0457 | – | 0.049 | 0.0511 | 0.0673 | 0.0524 | 0.0633 | 0.0542 | 0.0714 | 0.0488 | – | 0.0561 | 0.056
F180C | 0.0517 | 0.0581 | 0.0545 | 0.0316 | – | 0.0526 | 0.0596 | 0.0821 | – | – | 0.0584 | 0.0617 | 0.0703 | 0.0362 | 0.0619 | – | – | 0.0658 | –
N177H | 0.0747 | 0.0558 | 0.0564 | 0.0678 | – | – | 0.0536 | – | 0.0502 | – | 0.0472 | 0.0599 | 0.0682 | – | 0.0642 | – | 0.0739 | 0.0703 | 0.0674
N177A | 0.0702 | 0.0729 | – | 0.0682 | – | 0.0244 | 0.0612 | – | 0.0712 | – | 0.0593 | 0.0734 | 0.0664 | 0.0854 | – | 0.0642 | – | 0.0456 | 0.065
N175C | 0.0915 | – | 0.0594 | 0.0523 | – | – | 0.0653 | 0.0846 | 0.0556 | 0.069 | – | 0.0551 | – | 0.0593 | 0.0466 | 0.0511 | 0.0514 | 0.0558 | 0.0533
N175F | 0.046 | 0.0603 | 0.0654 | – | – | 0.073 | 0.0605 | 0.128 | 0.0504 | 0.0673 | – | 0.0826 | 0.0589 | 0.0594 | – | – | – | 0.0952 | –
